Measurements taken from patent US20250000989A1, “PYRROLO BENZODIAZEPINE DERIVATIVE, AND CONJUGATE, PREPARATION METHOD AND USE THEREOF” (priority 2021, published 2025).

Key:
Assay in all cases: In vitro killing effect of Claudin18.2-ADCs (CTG)
Format in all cases: cell-based, human
[1] = tested on: Cells moderately expressing NUGC4-claudin18.2; settings: NUGC4 moderate claudin18.2 expression, cultured 4 days
Procedure: (§1) The in vitro killing effects of Claudin18.2-ADCs on the human gastric signet ring cell carcinoma cell strain NUGC4 were measured using CTG (CellTiter-Glo Luminescence Cell Viability Assay®, Promega, G7573).
(§2) Human gastric signet ring cell carcinoma cell strain NUGC4 (Nanjing Cobioer, CBP60493);
(§3) A PCDH plasmid containing the full-length sequence of claudin18.2 (SEQ ID NO: 7) was transfected into NUGC4 cells by electroporation. After two weeks of pressure selection, the levels of claudin18.2 expression were measured, and monoclonal cell strains with different expression levels were sorted based on the measured expression levels by flow cytometry. NUGC4/hCLDN18.2 1 #, a monoclonal cell strain highly expressing human Claudin18.2, and NUGC4/hCLDN18.2 11 #, a monoclonal cell strain moderately expressing human Claudin18.2, were obtained. • 2. On day 1: NUGC4, NUGC4(WT) 11 #, and NUGC4/hCLDN18.2 1 #cells were harvested, and the density was adjusted to 2.5×10^4/mL; the cells were added to white transparent 96-well plates at 90 μL/well, i.e., about 2500 cells/well, and cultured overnight in a 37° C., 5% CO2 incubator. • 3. On day 2: Samples were serially diluted 5-fold in 96-well plates from an initial concentration of 400 nM to obtain 9 concentration points, and the diluted samples were added to the cell plates at 10 μL/well; the cells were cultured at 37° C. with 5% CO2 for 4 days. • 4. On day 8: The cell culture plates were taken out, and Cell Titer-Glo Reagent was added at 50 μL/well; the plates were left to stand at room temperature for 2-3 min, and fluorescence values were measured on a PHERAstar FS microplate reader (BMG LABTECH).
(§4) Data were analyzed using the software GraphPad Prism.

[2] = tested on: Cells lowly expressing NUGC4-claudin18.2; settings: NUGC4 low claudin18.2 expression, cultured 4 days
Procedure: as §1, §2, §3, §4

[3] = tested on: Cells highly expressing NUGC4-claudin18.2
Procedure: as §1, §2, §3, §4

B1: ADC-22 (conjugate)
light: DIVLTQSPDSLAVSLGERATINCKSSQSLLNSGNQKNYLTWYQQKPGQPPKLLIYWASTRESGVPDRFSGSGSGTDFTLTISSLQAEDVAVYYCQNAYTYPFTFGQGTKLEIKRTVAAPSVFIFPPSDEQLKSGTASVVCLLNNFYPREAKVQWKVDNALQSGNSQESVTEQDSKDSTYSLSSTLTLSKADYEKHKVYACEVTHQGLSSPVTKSFNRGEC
heavy: EVQLVQSGAEVKKPGASVKVSCKASGYTFTSYWMHWVRQAPGQRLEWMGMIHPNSGSTNYNEKFKGRVTITRDTSASTAYMELSSLRSEDTAVYYCARLKTGNSFDYWGQGTTVTVSS[gap - human IgG1 constant region]
- Emax, cells moderately expressing NUGC4-claudin18.2 [1]: 97.20
- Emax, cells lowly expressing NUGC4-claudin18.2 [2]: 88.37
- Emax, cells highly expressing NUGC4-claudin18.2 ([3]; NUGC4 high claudin18.2 expression, cultured 4 days, CTG): 94.95
- activity in killing the high-expression cell line (conclusion in words) ([3]; NUGC4 highly expressing claudin18.2): good activity
